From patent US20200347115A1 (Hoffmann-La Roche, published 2020)

Target: human 4-1BB (CD137) (human, UniProt Q07011 24-255)
Experiment: cell-based or functional assay
Design: AUC of NFκB-luciferase activation curve, HeLa-hu4-1BB-NFκB-luc clone 26, no FAP-expressing cells / AUC of NFκB-luciferase activation curve, HeLa-hu4-1BB-NFκB-luc clone 26, with WM-266-4 cells: unit not given beside the values

AUC of NFκB-luciferase activation curve, HeLa-hu4-1BB-NFκB-luc clone 26, no FAP-expressing cells: 8250
AUC of NFκB-luciferase activation curve, HeLa-hu4-1BB-NFκB-luc clone 26, with NIH/3T3-huFAP clone 19 cells: 47300
AUC of NFκB-luciferase activation curve, HeLa-hu4-1BB-NFκB-luc clone 26, with WM-266-4 cells: 24200
EC50 of NFκB-luciferase activation, HeLa-hu4-1BB-NFκB-luc clone 26, no FAP-expressing cells: 0.92 nM
EC50 of NFκB-luciferase activation, HeLa-hu4-1BB-NFκB-luc clone 26, with NIH/3T3-huFAP clone 19 cells: 0.01 nM
EC50 of NFκB-luciferase activation, HeLa-hu4-1BB-NFκB-luc clone 26, with WM-266-4 cells: 0.07 nM
B1: FAP (4B9)-4-1BB ligand (71-248) contorsbody P1AA9626 (Fc fusion)
chain 1: REGPELSPDDPAGLLDLRQGMFAQLVAQNVLLIDGPLSWYSDPGLAGVSLTGGLSYKEDTKELVVAKAGVYYVFFQLELRRVVAGEGSGSVSLALHLQPLRSAAGAAALALTVDLPPASSEARNSAFGFQGRLLHLSAGQRLGVHLHTEARARHAWQLTQGATVLGLFRVTPEIPAGLGGGGSGGGGSDKTHTCPPCPAPEAAGGPSVFLFPPKPKDTLMISRTPEVTCVVVDVSHEDPEVKFNWYVDGVEVHNAKTKPREEQYNSTYRVVSVLTVLHQDWLNGKEYKCKVSNKALGAPIEKTISKAKGQPREPQVCTLPPSRDELTKNQVSLSCAVKGFYPSDIAVEWESNGQPENNYKTTPPVLDSDGSFFLVSKLTVDKSRWQQGNVFSCSVMHEALHNHYTQKSLSLSPGGGGGSGGGGSREGPELSPDDPAGLLDLRQGMFAQLVAQNVLLIDGPLSWYSDPGLAGVSLTGGLSYKEDTKELVVAKAGVYYVFFQLELRRVVAGEGSGSVSLALHLQPLRSAAGAAALALTVDLPPASSEARNSAFGFQGRLLHLSAGQRLGVHLHTEARARHAWQLTQGATVLGLFRVTPEIPAGLGGGGSGGGGSREGPELSPDDPAGLLDLRQGMFAQLVAQNVLLIDGPLSWYSDPGLAGVSLTGGLSYKEDTKELVVAKAGVYYVFFQLELRRVVAGEGSGSVSLALHLQPLRSAAGAAALALTVDLPPASSEARNSAFGFQGRLLHLSAGQRLGVHLHTEARARHAWQLTQGATVLGLFRVTPEIPAGL
chain 2: EVQLLESGGGLVQPGGSLRLSCAASGFTFSSYAMSWVRQAPGKGLEWVSAIIGSGASTYYADSVKGRFTISRDNSKNTLYLQMNSLRAEDTAVYYCAKGWFGGFNYWGQGTLVTVSSASTKGPSVFPLAPSSKSTSGGTAALGCLVKDYFPEPVTVSWNSGALTSGVHTFPAVLQSSGLYSLSSVVTVPSSSLGTQTYICNVNHKPSNTKVDKKV[omitted - human IgG1 Fc with changes]GGGGSGGGGSEIVLTQSPGTLSLSPGERATLSCRASQSVTSSYLAWYQQKPGQAPRLLINVGSRRATGIPDRFSGSGSGTDFTLTISRLEPEDFAVYYCQQGIMLPPTFGQGTKVEIKRTVAAPSVFIFPPSDEQLKSGTASVVCLLNNFYPREAKVQWKVDNALQSGNSQESVTEQDSKDSTYSLSSTLTLSKADYEKHKVYACEVTHQGLSSPVTKSFNRGEC
